Experimental data from the supplement of paper PMC11417369.
The other results are listed elsewhere or left out.

What follows are sequences tested on PfHDP1 homeodomain (GST-tagged) (assay: gcPBM binding intensity (ln(normalized median fluorescence intensity)); higher = stronger DNA binding).
Procedure, shortened: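 Alexa488 anti-GST antibody, scanned at 488 nm, detected GST-tagged P. falciparum DNA-binding domains that had been expressed in E. coli and incubated for 1 h on an Agilent 4 × 180k array. The array carried primer-extended double-stranded 36-bp intergenic genomic probes and negative controls. Binding intensity is the highest Masliner-normalised natural-log median intensity across replicate spots of either orientation of each probe.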
In the case of “ACCTTAATAAAAAAAAGTACAAACATGTTCAAATTG [XGTACX_site1556]”, the “gcPBM binding intensity (ln)” value is reported as 7.54. For “TACATATTGATATATACACACAAAAAAATAAATTCT [CACACA_site6198]”, the “gcPBM binding intensity (ln)” value was 6.3. “AATAAATAAATATATATATATATATATATATATATA [CACACA_negctrl_site365]” was tested, and the “gcPBM binding intensity (ln)” value was 9.36. For “ACAATTTACACTTAAACACACAAAAAAAAGTTATAT [CACACA_site7056]”, the “gcPBM binding intensity (ln)” value was 6.84. With “TATCAAAATTGTAATTGTACTTGTAAGTGGATATAT [XGTACX_site5949]” the “gcPBM binding intensity (ln)” value was 6.75. With “GTATTGCATGAGGACACACACAAAAAAAATATAGAT [CACACA_site6500]” the “gcPBM binding intensity (ln)” value was 6.92. With “TATATATTTCATCCTTGTACACATTTGTGTTTACAT [XGTACX_site1132]” the “gcPBM binding intensity (ln)” value was 6.81. In the case of “TTTTTTTTTTTTTTCTTACAATTTATTGAACAAATG [XGTACX_negctrl_site515]”, the “gcPBM binding intensity (ln)” value is reported as 6.41. “AGTGATTATTAATAATGTACATATCTATAAATATAT [XGTACX_site4734]” was tested, and the “gcPBM binding intensity (ln)” value was 6.43. With “TAGTTTTTTATATATTGTACAAATAATATATGATAT [XGTACX_site4220]” the “gcPBM binding intensity (ln)” value was 6.6. For “ATTTATACTTATGTATGTACATATATACATATGTAT [XGTACX_site3979]”, the “gcPBM binding intensity (ln)” value was 6.37. In the case of “ACTAAAAAATATATATGTACATAATAATATATTATT [XGTACX_site1260]”, the “gcPBM binding intensity (ln)” value is reported as 6.66. With “TATCCTTATATTTGCACACACACACTAGAAAATGAA [CACACA_site4714]” the “gcPBM binding intensity (ln)” value was 10.7. “AAAAAAAAAAAAAAAAAAAACGAAAAACATCAAAGA [TGCATGCA_negctrl_site78]” was tested, and the “gcPBM binding intensity (ln)” value was 6.81. For ATAATAAAATAACTAGTGCATATTCAAAGGATTCAG, the “gcPBM binding intensity (ln)” value was 8.65. For “ATTATGTGTCCACATGTAAGCTATCTTACTTATATA [CACACA_negctrl_site1227]”, the “gcPBM binding intensity (ln)” value was 6.49. With “TACAAAAAAATAAAAAAAATTAAATAAATAAATATA [CACACA_negctrl_site45]” the “gcPBM binding intensity (ln)” value was 6.01. For “ATAGTTACACAATGGTGTACAAGTCAATATATTTCT [XGTACX_site4614]”, the “gcPBM binding intensity (ln)” value was 6.42. “CATATTTGTGGACACACACACATATTTATATATATA [CACACA_site5887]” was tested, and the “gcPBM binding intensity (ln)” value was 7.16. With “ATAATAAATAAAATAACACACATATATAAATATATA [CACACA_site170]” the “gcPBM binding intensity (ln)” value was 6.27. “ATTAATAAAAAATTTTAAAAAATAAATAAAATAAAA [TGCATGCA_negctrl_site113]” was tested, and the “gcPBM binding intensity (ln)” value was 6.52. In the case of “ATATATATTTAACAATGTACTTATTCAGAGAATAAT [XGTACX_site574]”, the “gcPBM binding intensity (ln)” value is reported as 6.24. In the case of “AAAATATTTTTATAATGTACATATAGTTGTATTTGT [XGTACX_site8724]”, the “gcPBM binding intensity (ln)” value is reported as 6.9. In the case of “ATTTTTATTCAGTTCACACACGCTTTAATATTATAT [CACACA_site3465]”, the “gcPBM binding intensity (ln)” value is reported as 6.92. “CCCTTAATATAAAGCACACATATATATAATATATAT [CACACA_site4439]” was tested, and the “gcPBM binding intensity (ln)” value was 6.96. With “AAGTTGAAATAATGTGCACACATTTTTTTTTTTTTT [CACACA_site3368]” the “gcPBM binding intensity (ln)” value was 9.16. In the case of “TACATATATTTTTATACATGCATAACTTAGGACTTT [TGCATGCA_site113]”, the “gcPBM binding intensity (ln)” value is reported as 6.43. “TACCATATTTCTTCAAGTACGCATTATGTTAAAAAG [XGTACX_site345]” was tested, and the “gcPBM binding intensity (ln)” value was 6.67. “ATATTTATATATATCATACACACTAATATGTATATT [CACACA_site3409]” was tested, and the “gcPBM binding intensity (ln)” value was 6.44. With “TCCTTTTTGAAATGTTGTACTTTTTTTATCTTTCAT [XGTACX_site953]” the “gcPBM binding intensity (ln)” value was 6.57. For “TAATTATATATATACACACACATACAGACAAATAAA [CACACA_site3412]”, the “gcPBM binding intensity (ln)” value was 7.41. For “GAAATTTGTTATTGCACACAAATTTTTCTTTTTTTA [CACACA_site2339]”, the “gcPBM binding intensity (ln)” value was 9.6. In the case of “TATTTTTTTTTTTTTTTTTTTTTAAAACATATCAAT [CACACA_negctrl_site925]”, the “gcPBM binding intensity (ln)” value is reported as 6.06. With “ATTTTTTTTTTTTTATGTACATATAGGTGCAAATCA [XGTACX_site6748]” the “gcPBM binding intensity (ln)” value was 11.1. With “ACAATGTCATTTGCTAGTACGCATATTGGTTGTAAA [XGTACX_site8924]” the “gcPBM binding intensity (ln)” value was 6.16. “TAAAAAAAAAAAAAAAGTACACACATACATATAAAT [XGTACX_site3752]” was tested, and the “gcPBM binding intensity (ln)” value was 6.57. “ATATATATATATAATTGTACATATAATATAATATTA [XGTACX_site5216]” was tested, and the “gcPBM binding intensity (ln)” value was 9.07. For “ATATATATTATATATAGTACTTTTTTGCGCAAATAT [XGTACX_site6849]”, the “gcPBM binding intensity (ln)” value was 8.17. In the case of “AACACATGCTTGGTCACACACGTATGCATATTTAAA [CACACA_site5206]”, the “gcPBM binding intensity (ln)” value is reported as 6.86. With “AATATGTTATAAATATGTTATAAATAATAAATAAAT [GTGCAC_negctrl_site135]” the “gcPBM binding intensity (ln)” value was 6.46. In the case of “AAAAAAAAAAAACACACACACACATACACATACATA [CACACA_site2858]”, the “gcPBM binding intensity (ln)” value is reported as 6.83. “ATAATAATTAACCTATGTACATAGGAAAGTCATAAA [XGTACX_site4387]” was tested, and the “gcPBM binding intensity (ln)” value was 6.93. With “GAAGAAAAATAAAAAGTGCAAAAAAAGTAAAAATTT [GTGCAC_site9897]” the “gcPBM binding intensity (ln)” value was 8.52. For “TATATAAATAGACACACACACACCTTATAATTACTA [CACACA_site7828]”, the “gcPBM binding intensity (ln)” value was 6.71. For “ACATAAGACACAAATACACACAAAAATATGTAACAA [CACACA_site7836]”, the “gcPBM binding intensity (ln)” value was 6.68. With “TTTTATGAAAAGTATTGTACGTATAATTTATATGTA [XGTACX_site1639]” the “gcPBM binding intensity (ln)” value was 6.21. For TATGTATGTGCTTGTGCGCACCGATAATATAGCCAA, the “gcPBM binding intensity (ln)” value was 8.81. With “TGCTATAATTTATATACACACAAATATATACGCATA [CACACA_site4096]” the “gcPBM binding intensity (ln)” value was 6.6. For “TCTCATAGTAGACACACACACACACGCACATATATA [CACACA_site6916]”, the “gcPBM binding intensity (ln)” value was 7.29. With “TTCTTATAAATATACACACACAAAATATCTACAATG [CACACA_site6487]” the “gcPBM binding intensity (ln)” value was 6.75. For “TGTGTAAGATCTTGGATGATGATAAGAATCTACTAG [CACACA_negctrl_site1167]”, the “gcPBM binding intensity (ln)” value was 6.16. “CCTTAAAATAAGATATGTACGCAAAGGAAAACAAAG [XGTACX_site6057]” was tested, and the “gcPBM binding intensity (ln)” value was 7.09. With “TTATAAGATTTATGTACACACATATACTCACCTCTA [CACACA_site729]” the “gcPBM binding intensity (ln)” value was 6.55. For “ACAAATACAAAAAAAGGTACACACATAATATATTTA [XGTACX_site5515]”, the “gcPBM binding intensity (ln)” value was 6.82. “AATATAAATACTCCTACACACATATATATATATATA [CACACA_site3010]” was tested, and the “gcPBM binding intensity (ln)” value was 9.34. For “GACACAAAAAAATAATAATAATAATAATAATAAATA [XGTACX_negctrl_site145]”, the “gcPBM binding intensity (ln)” value was 6.27.
